Source: PubChem BioAssay AID1347165 (National Center for Advancing Translational Sciences (NCATS), 2019)
The whole screen tested about 220,000 compounds, of which about 5,700 (2.6%) were called active. Inconclusive means that the source gave no clear call. Such entries were picked first, then a sample of the others. The call rests on the fitted dose curve; in most records, active means well fitted inhibition curve with a large enough effect; inconclusive means small, poorly fitted or top-dose-only effect; inactive means no such curve, though single readings can be large or run the other way. Potencies of inconclusive entries are doubtful fits and often do not repeat.
Further: nearly all actives have a fitted effect of over 70% in size.
Potency means the concentration at half of the fitted maximal effect; tags describe the fitted curve by direction and shape.
Wherever activity change, negative = inhibition is given: 0% is about no effect.

Each compound was assayed against Lysine-specific demethylase 5B (Homo sapiens) (UniProt Q9UGL1) (assay: Primary screen for KDM5B Histone Demethylases FDH-coupled qHTS). Conditions: FDH-coupled NADH fluorescence (FDH is formaldehyde dehydrogenase); activity change, negative = inhibition: at 57.7 µM (top of the series) unless noted.
Sequence of UniProt Q9UGL1 (Q9UGL1 whole entry, looked up): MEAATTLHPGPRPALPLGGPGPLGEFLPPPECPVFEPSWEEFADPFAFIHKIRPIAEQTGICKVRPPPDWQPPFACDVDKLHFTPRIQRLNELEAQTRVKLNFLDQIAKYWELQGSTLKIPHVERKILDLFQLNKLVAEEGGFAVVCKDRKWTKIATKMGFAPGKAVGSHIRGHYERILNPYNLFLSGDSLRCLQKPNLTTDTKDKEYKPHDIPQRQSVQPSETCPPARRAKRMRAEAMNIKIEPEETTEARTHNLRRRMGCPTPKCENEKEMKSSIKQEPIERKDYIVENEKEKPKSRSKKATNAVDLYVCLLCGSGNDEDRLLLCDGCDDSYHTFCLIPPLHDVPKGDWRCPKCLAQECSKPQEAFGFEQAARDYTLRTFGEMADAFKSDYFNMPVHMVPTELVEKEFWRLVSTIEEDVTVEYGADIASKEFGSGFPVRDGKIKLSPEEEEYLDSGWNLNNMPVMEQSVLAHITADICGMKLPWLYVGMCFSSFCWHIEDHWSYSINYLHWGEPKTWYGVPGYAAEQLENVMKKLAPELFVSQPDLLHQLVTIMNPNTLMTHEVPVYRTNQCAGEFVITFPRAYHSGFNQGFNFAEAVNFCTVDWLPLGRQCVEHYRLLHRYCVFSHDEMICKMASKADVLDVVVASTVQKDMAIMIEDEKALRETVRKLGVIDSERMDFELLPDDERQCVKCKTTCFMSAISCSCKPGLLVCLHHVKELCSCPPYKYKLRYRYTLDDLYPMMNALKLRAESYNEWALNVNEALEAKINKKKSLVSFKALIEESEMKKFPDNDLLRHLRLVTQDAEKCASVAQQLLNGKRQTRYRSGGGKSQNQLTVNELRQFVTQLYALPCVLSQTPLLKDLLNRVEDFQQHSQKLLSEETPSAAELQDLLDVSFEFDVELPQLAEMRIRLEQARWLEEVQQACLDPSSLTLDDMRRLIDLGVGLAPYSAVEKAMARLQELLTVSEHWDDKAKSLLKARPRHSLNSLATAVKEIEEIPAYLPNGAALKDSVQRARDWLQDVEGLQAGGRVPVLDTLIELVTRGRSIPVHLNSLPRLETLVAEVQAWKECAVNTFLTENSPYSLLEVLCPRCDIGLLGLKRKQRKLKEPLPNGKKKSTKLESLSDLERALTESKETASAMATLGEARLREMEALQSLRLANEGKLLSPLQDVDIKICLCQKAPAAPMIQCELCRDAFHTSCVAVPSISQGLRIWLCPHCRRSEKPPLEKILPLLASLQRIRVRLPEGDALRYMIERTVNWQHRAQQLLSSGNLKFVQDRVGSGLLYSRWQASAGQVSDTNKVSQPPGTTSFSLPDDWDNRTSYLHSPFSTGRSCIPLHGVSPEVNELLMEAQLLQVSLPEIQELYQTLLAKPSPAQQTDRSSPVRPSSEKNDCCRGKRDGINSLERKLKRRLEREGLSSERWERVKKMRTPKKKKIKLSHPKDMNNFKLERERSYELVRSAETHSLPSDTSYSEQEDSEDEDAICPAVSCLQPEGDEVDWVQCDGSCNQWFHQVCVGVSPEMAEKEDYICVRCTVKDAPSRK
In short: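 Measured: NADH fluorescence change, 30 min, RT. System: KDM5BΔAP 200 nM final, H3K4me3 peptide, α-KG, Fe(II), ascorbate, NAD⁺ plus FDH, pH 7.5 HEPES. Compounds: titrated, 10 min pre-incubation with enzyme.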
With CSc1ccc(CNC(=O)C2CCN(c3nnc(-n4cccc4CNc4ccc(C)cc4)s3)CC2)cc1 the Potency was inconclusive: 12.6 µM [inhibitor, partial curve, poor fit]. For O=C(Cn1cc(SCc2ccccc2)c2ccccc21)N1CCCCC1, the Potency was inconclusive: 17.8 µM [inhibitor, partial curve, poor fit]. For CCOC(=O)c1ccc(NC(=O)CSc2nc3c(-c4ccccc4)c[nH]c3c(=O)n2CC)cc1, the “activity change, negative = inhibition” value was inactive: 9.77%. CCN1c2cc(C(=O)NCc3ccc(OC)c(OC)c3)ccc2C(=O)N2CCCCCC21 (stereo unspecified) was tested, and the Potency was inconclusive: 25.1 µM [inhibitor, partial curve, poor fit]. For CCCn1nc(C)cc1CN(C)C(=O)c1ccc2c(c1)C(O)CCCCCN2C (stereo unspecified), the Potency was inconclusive: 39.8 µM [inhibitor, single point]. With O=[S+]1([O-])NC2(CCN(Cc3cccs3)CC2)COc2ccccc21 the Potency was inconclusive: 56.2 µM [inhibitor, partial curve, poor fit]. COc1ccc(-c2nc(C)c(CCNC(=O)C(=O)Nc3c(C)cccc3C)s2)cc1OC was tested, and the Potency was inconclusive: 2 µM [inhibitor, partial curve, poor fit]. With Cc1cc(OCC(F)F)ccc1N the Potency was inconclusive: 28.2 µM [inhibitor, partial curve, poor fit]. CN1c2cc(C(=O)NCc3ccccc3Br)ccc2C(=O)N2CCCC21 (stereo unspecified) was tested, and the Potency was inconclusive: 22.4 µM [inhibitor, partial curve, poor fit]. CCOc1ncccc1CNC(=O)c1cc2cc(C)ccc2nc1C was tested, and the “activity change, negative = inhibition” value was inactive: 2.55%. For CC(=O)c1cccc(NC(=O)O[C@@H]2CO[C@H]3[C@@H]2OC[C@@H]3Nc2nccc(-c3cccc(F)c3)n2)c1, the Potency was inconclusive: 28.2 µM [inhibitor, partial curve, poor fit]. Cc1noc2c(-c3cccnc3)cc(-c3cccs3)nc12 was tested, and the Potency was inconclusive: 44.7 µM [inhibitor, partial curve, poor fit]. Cc1c(CCC(=O)O)c(=O)oc2c(C)c3occ(-c4ccc(Br)cc4)c3cc12 was tested, and the Potency was inconclusive: 39.8 µM [inhibitor, single point]. COc1ccc2nc([C@H]3CCN(CC(C)C)C3)[nH]c2c1 was tested, and the Potency was inconclusive: 31.6 µM [inhibitor, partial curve, poor fit]. For CNC(=O)[C@@H](Cc1ccccc1)N1CCC[C@H]1C(=O)NCCN(C)C, the “activity change, negative = inhibition” value was inactive: 2.51% [at 86.2 µM]. In the case of CC(C)(C)OC(=O)N1CCC(c2c(C(=O)NCCCN3CCc4ccccc4C3)cnn2-c2ccccc2)CC1, the Potency is reported as inconclusive: 15.8 µM [inhibitor, partial curve, poor fit]. In the case of COc1ccc(-c2c(C)c3cc(OC(=O)N4CCOCC4)ccc3oc2=O)cc1, the Potency is reported as inconclusive: 25.1 µM [inhibitor, single point]. With NS(=O)(=O)c1ccc(O)cc1 the “activity change, negative = inhibition” value was inactive: -4.68%. O=C(CCn1nnc2ccccc21)OCC(=O)c1ccccc1 was tested, and the “activity change, negative = inhibition” value was inactive: 10.7%. For Cc1ccccc1Nc1c(-c2ccc(Cl)s2)nc2c(C)cccn12, the Potency was inconclusive: 12.6 µM [inhibitor, partial curve, poor fit]. With CC(C)CC(=O)Nc1ccc(S(=O)(=O)Nc2cc3c(cc2N2CCOCC2)n(C)c(=O)c(=O)n3C)cc1 the Potency was inconclusive: 17.8 µM [inhibitor, partial curve, poor fit]. CC(/C=C/c1ccco1)=N/NC(=O)c1ccc(C)nc1 was tested, and the Potency was inconclusive: 39.8 µM [inhibitor, partial curve, poor fit]. In the case of COc1ccc(OC)c(NC(=O)COC(=O)c2cc(S(=O)(=O)N3CCOCC3)ccc2F)c1, the “activity change, negative = inhibition” value is reported as inactive: 1.84%. For CCOC(=O)c1ccc(/C=C/c2ccccn2)cc1, the Potency was inconclusive: 22.4 µM [inhibitor, partial curve, poor fit]. Cc1ccc(C)c(OCC(=O)c2ccc3c(c2)N(CCCC(=O)NCC2CCCO2)C(=O)CO3)c1 (stereo unspecified) was tested, and the “activity change, negative = inhibition” value was inactive: -1.91%. With CCCCc1nc2ccccc2n2c(-c3ccc(OC)cc3)c3c(=O)n(C)c(=O)n(C)c3c12 the Potency was inconclusive: 7.08 µM [inhibitor, partial curve, poor fit]. CC(C)c1ccc(NC(=O)C2CCN(c3nc(-c4ccc(C(C)C)cc4)no3)CC2)cc1 was tested, and the Potency was inconclusive: 1.26 µM [inhibitor, full curve, poor fit]. In the case of CCNC(=O)[C@@H]1C[C@H](n2cc(CN(C)C(=O)Nc3ccc(C)cc3)nn2)CN1, the Potency is reported as inconclusive: 20 µM [inhibitor, partial curve, poor fit]. C=C(C)Cn1c(NCCOC)nc2c1c(=O)n(C)c(=O)n2C was tested, and the “activity change, negative = inhibition” value was inactive: 13.3%. For Oc1c(C(c2ccccc2F)N2CCCCC2)sc2nc(-c3ccco3)nn12 (stereo unspecified), the Potency was inconclusive: 28.2 µM [inhibitor, single point]. Cc1cc(C)cc(NC(=O)CCCN2C(=O)COc3ccc(C)cc32)c1 was tested, and the Potency was inconclusive: 15.8 µM [inhibitor, partial curve, poor fit]. With COc1ccc(C)cc1NC(=O)C1CCN(S(=O)(=O)c2ccc3[nH]c4c(c3c2)CCCCC4)CC1 the Potency was inconclusive: 25.1 µM [inhibitor, partial curve, poor fit]. COc1ccc2c(c1)OCC(C(=O)NCCS(=O)(=O)N1CCCC1)C2 (stereo unspecified) was tested, and the Potency was inconclusive: 22.4 µM [inhibitor, single point]. For O=C(NC1CCCC1)C1CCN(C2=NS(=O)(=O)c3ccccc32)CC1, the “activity change, negative = inhibition” value was inactive: 19%. With O=C(O)C/C(=C/c1ccc(Br)cc1)c1nc2ccccc2s1 the “activity change, negative = inhibition” value was inactive: -16.7%. CC(=O)Nc1ccc(NC(=O)c2ccc(COc3ccc(Cl)cc3Cl)o2)cc1 was tested, and the Potency was inconclusive: 28.2 µM [inhibitor, single point]. With Cc1ccc(NC(=O)CCNc2cnc3cnccn23)cc1F the Potency was active: 22.4 µM. With Cc1ccc(-n2nc(CO)c(C(=O)NCc3cccs3)n2)cc1C the Potency was inconclusive: 17.8 µM [inhibitor, partial curve, poor fit]. O=C(NCC1Cn2cccc2C(=O)N1Cc1ccccc1)C1CC1 (stereo unspecified) was tested, and the “activity change, negative = inhibition” value was inactive: -14.5%. With COc1ccc(CNC(=O)COC(=O)C(CCSC)N2C(=O)c3ccccc3C2=O)cc1 (stereo unspecified) the “activity change, negative = inhibition” value was inactive: -3.03%. For COc1ccc(-c2nn(-c3ccccc3)cc2C2=NN(S(C)(=O)=O)C(c3cccs3)C2)cc1 (stereo unspecified), the “activity change, negative = inhibition” value was inactive: 10.6%.
